Measurements reported in the supplement of paper PMC11417369.
The list shows a part of the results.

System: PfSIP2 AP2 domain 1 (GST-tagged)
Experiment: gcPBM binding intensity (ln(normalized median fluorescence intensity)); higher = stronger DNA binding
In short: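 After 1 h on an Agilent 4 × 180k array of primer-extended double-stranded 36-bp intergenic genomic probes and negative controls, bound GST-tagged P. falciparum DNA-binding domains were detected with Alexa488 anti-GST antibody and scanned at 488 nm. The domains had been expressed in E. coli, and binding took place in 1× PBS with 1% milk, 0.2 mg/ml BSA, 0.5% salmon testes DNA and 0.03% Triton X-100. Binding intensity is the highest Masliner-normalised natural-log median intensity across replicate spots of either probe orientation.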

In order of rising “gcPBM binding intensity (ln)” value:
1. TTATTTCAAAGTAAATCAGTAAATATTTGTTTTCTT [CACACA_negctrl_site1572]  6.58
2. TATAAAAAGCAAAACAAAAAAACAAATTGAAAAATT [TGCATGCA_negctrl_site158]  6.64
3. TAGTAAAAACCAAAATGTACATGTGCCATTTTTTTA [XGTACX_site2630]  6.68
4. TAGATATATAATTTTTGTACGTAGTCGAATCTCAGA [XGTACX_site765]  6.76
5. TTGTAATTATTAAACACACACAAAATATCTAGAATA [CACACA_site7231]  6.86
6. ATCAAAAAAAAAAAAAGTACACAAAATTTTTTATTA [XGTACX_site7986]  6.88
7. CCAACTAAAAAGGAATGTACATAGTTATGGTTGGAA [XGTACX_site8762]  6.89
8. TTTTTTATTTTTTTATTGTTTTATTGTTTCATTGTT [XGTACX_negctrl_site128]  6.91
9. CCGTAGTTTTAAAATAGTACTTTTATGGTTAATAAA [XGTACX_site3162]  6.93
10. ACTTTAAACAAAAAAAGTACTCTTTAATGAATATAT [XGTACX_site7176]  6.93
11. AAGGTTTAAAATTACTGTACAAATATAAATAAATAT [XGTACX_site3756]  6.93
12. TTATATATTTCTACTCATATTACAATGTGAGAAATA [CACACA_negctrl_site873]  6.95
13. TGTATATATTAATGTACACACATGCGTATGTTCGTT [CACACA_site3583]  7
14. CAATATTTTATTTAAGCATGCTCTAGGGTGTAAAAG [TGCATGCA_site1001]  7.01
15. AACATTAAAAGGGATACACACATATAAATAAATAAT [CACACA_site489]  7.03
16. TATATTATACTAAGAAGTACAATATTTTTATTGTAA [XGTACX_site2810]  7.03
17. ATTTAGATTAACACTTGTACATAATACATACAAATA [XGTACX_site4147]  7.04
18. TATAAATAATAAAGATGTACTTTTTATGATTCCTAC [XGTACX_site7003]  7.05
19. ATGAATCCTTAATATGAACACACAAATATATTACAC [CACACA_site7943]  7.08
20. ATTTTTTTTTGTGTATATAAATAAATAAATATATAT [GTGCAC_negctrl_site603]  7.09
21. TATAGTATTCTAAATGCATGTAAATTATGTATATAT [TGCATGCA_site931]  7.09
22. TTGTTTCTCTTTAAAAGTACAAAAATGGTTACATAT [XGTACX_site3109]  7.1
23. AAATTCCACGAACACACACACATATAAATAAATAAA [CACACA_site6697]  7.1
24. TTACTACTATATTATACACACATATATTTATTTATA [CACACA_site7274]  7.12
25. TACATATTTAAATACTGTACTCAAAAGAATTGTGCA [XGTACX_site2250]  7.13
26. CAATTTCTCTTAATTTGTACATATATGTTATACAAA [XGTACX_site3231]  7.14
27. GATTATTAATAGTAACGTACATATGTTATAAAATAT [XGTACX_site5277]  7.18
28. TTTCCCTAATGAAAGTGTACCTGTGAGAAAAAAAAG [XGTACX_site194]  7.19
29. AAAAGAAAAGAGAGGAGTACAAAATATAATTATCTA [XGTACX_site5172]  7.22
30. CTTATATTGTACAGTACACACCTTTATAATGTTATT [CACACA_site4280]  7.26
31. AAATATATATAAAAGTGTACATTTGTTATAATCAGT [XGTACX_site4822]  7.28
32. TAGATTTTTTAATGTTGTACAAATATACGATATATA [XGTACX_site3258]  7.31
33. GTTTATCACAGCCACGCACACATAATATCTGTATAT [CACACA_site5929]  7.36
34. TTTTTTATTTATCCTATATATTACTAAATGAAGAAC [GTGCAC_negctrl_site333]  7.46
35. CATATTGGTATGCTCATGCACTTTTATTTTGTTATT [GTGCAC_site9553]  7.66
36. ACTATTCATGCATATACACACACATATATATATATT [CACACA_site9309]  7.73
37. TTATTTATTTATATAGTGCAATAAACACATAAATAG  8
38. ACATCAAGCAGACACACACACACACGCACACGCACA [CACACA_site6309]  8.4
39. TATATATATATATATATATATATATATATATGTTGT [TGCATGCA_negctrl_site24]  8.99
40. TATATGTGTGTTATATGTACTTATATATATATATAT [XGTACX_site5570]  9.06
41. CTCAACAAAATATGAGTGCATTGTTATTACATATAT  9.15
42. ACTAATATGTATATATATATATATATATATATATAT [CACACA_negctrl_site141]  9.31
43. AATTAGATACTAACAAGTACATATATATATATATAT [XGTACX_site2252]  9.77
44. AAAAAAAAAAAAAGAACACACACAGTGCACATTCGG [CACACA_site8163]  10.6
45. ATAATGAACAAAGTAGTGCACTTTCCTTATCTTTTC  10.9
